# The supplement of paper PMC8728848
# This is one part of the list.
# Tests used:
# Test in all cases: glycan array binding signal (z-score within array); higher = stronger binding
# Conditions in all cases: glycan notation: IUPAC condensed, linker removed
# [1] = molecular target: Man(a1-2)Man(a1-2)Man(a1-6)[Man(a1-3)]Man
# In short: (§1)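 Glycan array data came from 3228 arrays in the Consortium for Functional Glycomics database, and only arrays with an available protein sequence were kept. Glycan names were put into IUPAC-condensed notation, and columns mapping to the same glycan were averaged. The binding signal is a within-array Z-score, averaged across arrays of one protein sequence run at different concentrations or buffers and across linkers. A negative Z-score can be read as non-binding.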
# [2] = molecular target: Man(a1-2)Man(a1-3)Man
# In short: as §1
# [3] = molecular target: Man(a1-2)Man(a1-3)[Man(a1-2)Man(a1-6)]Man
# In short: as §1
# [4] = molecular target: Man(a1-2)Man(a1-3)[Man(a1-3)[Man(a1-6)]Man(a1-6)]Man(b1-4)GlcNAc(b1-4)GlcNAc
# In short: as §1
# [5] = molecular target: Man(a1-2)Man(a1-3)[Man(a1-6)]Man(a1-6)[Man(a1-2)Man(a1-3)]Man(b1-4)GlcNAc(b1-4)GlcNAc
# In short: as §1
# [6] = molecular target: Man(a1-3)[Man(a1-6)]Man
# In short: as §1
# [7] = molecular target: Man(a1-3)[Man(a1-6)]Man(a1-6)[Man(a1-3)]Man(b1-4)GlcNAc(b1-4)GlcNAc
# In short: as §1
# [8] = molecular target: Man(a1-3)[Man(a1-6)]Man(b1-4)GlcNAc(b1-4)GlcNAc
# In short: as §1
# [9] = molecular target: Man(b1-4)GlcNAc
# In short: as §1
# [10] = molecular target: Neu5Ac(a2-3)Gal
# In short: as §1
# [11] = molecular target: Neu5Ac(a2-3)Gal(b1-3)GalNAc
# In short: as §1
# [12] = molecular target: Neu5Ac(a2-3)Gal(b1-3)GalNAc(b1-3)Gal(a1-4)Gal(b1-4)Glc
# In short: as §1
# [13] = molecular target: Neu5Ac(a2-3)Gal(b1-3)GalNAc(b1-4)[Neu5Ac(a2-3)]Gal(b1-4)Glc
# In short: as §1
# [14] = molecular target: Neu5Ac(a2-3)Gal(b1-3)GalNAc6S
# In short: as §1
# [15] = molecular target: Neu5Ac(a2-3)Gal(b1-3)GlcNAc
# In short: as §1
# [16] = molecular target: Neu5Ac(a2-3)Gal(b1-3)GlcNAc(b1-3)Gal(b1-3)GlcNAc
# In short: as §1
# [17] = molecular target: Neu5Ac(a2-3)Gal(b1-3)GlcNAc(b1-3)Gal(b1-4)GlcNAc
# In short: as §1
# [18] = molecular target: Neu5Ac(a2-3)Gal(b1-3)GlcNAc6S
# In short: as §1
# [19] = molecular target: Neu5Ac(a2-3)Gal(b1-3)[Fuc(a1-4)]GlcNAc
# In short: as §1
# [20] = molecular target: Neu5Ac(a2-3)Gal(b1-3)[Fuc(a1-4)]GlcNAc(b1-3)Gal(b1-4)[Fuc(a1-3)]GlcNAc
# In short: as §1
# [21] = molecular target: Neu5Ac(a2-3)Gal(b1-3)[Neu5Ac(a2-3)Gal(b1-4)]GlcNAc
# In short: as §1
# [22] = molecular target: Neu5Ac(a2-3)Gal(b1-3)[Neu5Ac(a2-6)]GalNAc
# In short: as §1
# [23] = molecular target: Neu5Ac(a2-3)Gal(b1-4)Glc
# In short: as §1
# [24] = molecular target: Neu5Ac(a2-3)Gal(b1-4)GlcNAc
# In short: as §1
# [25] = molecular target: Neu5Ac(a2-3)Gal(b1-4)GlcNAc(b1-3)Gal(b1-3)GlcNAc
# In short: as §1
# [26] = molecular target: Neu5Ac(a2-3)Gal(b1-4)GlcNAc(b1-3)Gal(b1-4)GlcNAc
# In short: as §1
# [27] = molecular target: Neu5Ac(a2-3)Gal(b1-4)GlcNAc(b1-3)Gal(b1-4)GlcNAc(b1-3)Gal(b1-4)GlcNAc
# In short: as §1
# [28] = molecular target: Neu5Ac(a2-3)Gal(b1-4)GlcNAc(b1-3)Gal(b1-4)[Fuc(a1-3)]GlcNAc
# In short: as §1
# [29] = molecular target: Neu5Ac(a2-3)Gal(b1-4)GlcNAc(b1-6)[Gal(b1-3)]GalNAc
# In short: as §1
# [30] = molecular target: Neu5Ac(a2-3)Gal(b1-4)GlcNAc6S
# In short: as §1
# [31] = molecular target: Neu5Ac(a2-3)Gal(b1-4)[Fuc(a1-3)]GlcNAc
# In short: as §1
# [32] = molecular target: Neu5Ac(a2-3)Gal(b1-4)[Fuc(a1-3)]GlcNAc(b1-3)Gal
# In short: as §1
# [33] = molecular target: Neu5Ac(a2-3)Gal(b1-4)[Fuc(a1-3)]GlcNAc(b1-3)Gal(b1-4)GlcNAc
# In short: as §1
# [34] = molecular target: Neu5Ac(a2-3)Gal(b1-4)[Fuc(a1-3)]GlcNAc(b1-3)Gal(b1-4)[Fuc(a1-3)]GlcNAc(b1-3)Gal(b1-4)[Fuc(a1-3)]GlcNAc
# In short: as §1
# [35] = molecular target: Neu5Ac(a2-3)Gal(b1-4)[Fuc(a1-3)]GlcNAc6S
# In short: as §1
# [36] = molecular target: Neu5Ac(a2-3)Gal6S(b1-4)GlcNAc
# In short: as §1
# [37] = molecular target: Neu5Ac(a2-3)Gal6S(b1-4)[Fuc(a1-3)]GlcNAc
# In short: as §1
# [38] = molecular target: Neu5Ac(a2-3)GalNAc
# In short: as §1
binder,measurement,setting,value
"IDGF2 (Drosophila melanogaster), Q9V3D4 (protein) MKAWIWFTFVACLFAASTEAASNLVCYYDSSSYTREGLGKLLNPDLEIALQFCSHLVYGYAGLRGENLQAYSMNENLDIYKHQFSEVTSLKRKYPHLKVLLSVGGDHDIDPDHPNKYIDLLEGEKVRQIGFIRSAYDLVKTYGFDGLDLAYQFPKNKPRKVHGDLGLAWKSIKKLFTGDFIVDPHAALHKEQFTALVRDVKDSLRADGFLLSLTVLPNVNSTWYFDIPALNGLVDFVNLATFDFLTPARNPEEADYSAPIYHPDGSKDRLAHLNADFQVEYWLSQGFPSNKINLGVATYGNAWKLTKDSGLEGVPVVPETSGPAPEGFQSQKPGLLSYAEICGKLSNPQNQFLKGNESPLRRVSDPTKRFGGIAYRPVDGQITEGIWVSYDDPDSASNKAAYARVKNLGGVALFDLSYDDFRGQCSGDKYPILRAIKYRLHHHHHH",glycan array binding signal (z-score),[1],-0.514
same,glycan array binding signal (z-score),[2],-0.128
same,glycan array binding signal (z-score),[3],-0.265
same,glycan array binding signal (z-score),[4],-0.427
same,glycan array binding signal (z-score),[5],0.65
same,glycan array binding signal (z-score),[6],-0.527
same,glycan array binding signal (z-score),[7],0.541
same,glycan array binding signal (z-score),[8],-0.284
same,glycan array binding signal (z-score),[9],-0.223
same,glycan array binding signal (z-score),[10],0.247
same,glycan array binding signal (z-score),[11],-0.025
same,glycan array binding signal (z-score),[12],-0.258
same,glycan array binding signal (z-score),[13],-0.064
same,glycan array binding signal (z-score),[14],-0.062
same,glycan array binding signal (z-score),[15],-0.337
same,glycan array binding signal (z-score),[16],0.271
same,glycan array binding signal (z-score),[17],0.23
same,glycan array binding signal (z-score),[18],-0.052
same,glycan array binding signal (z-score),[19],-0.462
same,glycan array binding signal (z-score),[20],0.023
same,glycan array binding signal (z-score),[21],-0.113
same,glycan array binding signal (z-score),[22],-0.082
same,glycan array binding signal (z-score),[23],-0.174
same,glycan array binding signal (z-score),[24],0.136
same,glycan array binding signal (z-score),[25],-0.415
same,glycan array binding signal (z-score),[26],-0.3
same,glycan array binding signal (z-score),[27],-0.081
same,glycan array binding signal (z-score),[28],0.063
same,glycan array binding signal (z-score),[29],0.619
same,glycan array binding signal (z-score),[30],-0.148
same,glycan array binding signal (z-score),[31],-0.219
same,glycan array binding signal (z-score),[32],0.239
same,glycan array binding signal (z-score),[33],0.148
same,glycan array binding signal (z-score),[34],-0.009
same,glycan array binding signal (z-score),[35],-0.155
same,glycan array binding signal (z-score),[36],-0.073
same,glycan array binding signal (z-score),[37],-0.382
same,glycan array binding signal (z-score),[38],-0.489
